43 compounds from PubChem BioAssay AID687022 (Broad Institute, 2013) can be followed below.

In all, about 1,000 compounds went through this assay and about 360 (36%) were called active.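 Rule for the calls: active = Fitted curve of melting temperature shift crosses the 1.0 threshold at or below the sample's highest valid tested concentration; inconclusive = Flat fit with activity 30 to 70, or invalid fit; inactive = Opposite direction, flat within 30, or no crossing.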 This part holds few or none of the hits.

The target of the test is Fibroblast growth factor 22 (Homo sapiens) (UniProt Q9HCT0). The test can be described thus: FGF22 ligand-induced thermal stabilization – biophysical, thermal shift, cherry-pick, FGF22 synaptogenesis inhibitor project, dose response (AID 687022). Note: reference of the scale not given here. Particulars: recombinant FGF22 thermal shift, SYPRO orange melting; at 38 µM (top of the series) unless noted.
UniProt Q9HCT0, sequence (Q9HCT0 whole entry, looked up): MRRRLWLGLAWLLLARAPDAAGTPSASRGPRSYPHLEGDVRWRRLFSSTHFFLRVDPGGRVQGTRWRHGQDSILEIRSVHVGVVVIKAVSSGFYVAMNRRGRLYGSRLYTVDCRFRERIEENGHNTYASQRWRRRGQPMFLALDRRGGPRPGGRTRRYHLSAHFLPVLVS
Consider `Cc1ccccc1-c1ccc2c(c1)O[C@H](CN(C)CC1CC1)[C@H](C)CN([C@H](C)CO)S2(=O)=O`, for which the Tm shift activity was inactive: -0.477%.

For the compound `CC1C=NC(S(=O)(=O)N2CC[C@@H]3[C@@H](CO)N(C)c4ccc(-c5ccc(F)cc5)cc4[C@@H]32)=N1` (stereo partly drawn), the Tm shift activity is inactive: -0.187%.

With `COc1ccc(-c2ccc([C@H]3[C@H](CO)N4CCCCN(C(=O)c5ccc6c(c5)OCO6)C[C@@H]34)cc2)cc1`, the Tm shift activity was inactive: -0.203% [at 42 µM].

Regarding `Cc1noc(C)c1S(=O)(=O)N(C)C[C@H]1Oc2ccc(NS(=O)(=O)c3cccs3)cc2C(=O)N([C@@H](C)CO)C[C@H]1C`, the Tm shift activity was inactive: -0.774%.

For the compound `Cc1ccc(S(=O)(=O)Nc2ccc3c(c2)C(=O)N([C@@H](C)CO)C[C@@H](C)[C@@H](CN(C)C)O3)cc1`, the Tm shift activity is inactive: -0.078%.

As for `O=S(=O)(c1cccc2cccnc12)N1CCN(Cc2ccccc2)CC1`, the Tm shift activity is inactive: -0.1%.

With `COc1ccc(/C=N/N2C(C)CCCC2C)cc1OC` (stereo not drawn), the Tm shift activity is inactive: 0.063%.

With `COc1cccc2sc(NNC(=O)C3COc4ccccc4O3)nc12` (stereo not drawn), the Tm shift activity is inactive: -0.355%.

In the case of `C[C@@H]1CN([C@@H](C)CO)C(=O)c2cc(NS(=O)(=O)c3cn(C)cn3)ccc2O[C@@H]1CN(C)CC1CC1`, the Tm shift activity is inactive: -0.126% [at 42 µM].

As to `O=C(C[C@H]1C[C@@H]2c3cc(NC(=O)NC4CCCC4)ccc3O[C@@H]2[C@H](CO)O1)NC1CCCC1`, the Tm shift activity was inactive: -0.22%.

`COCC#Cc1ccc2c(c1)O[C@H](CN(C)C(=O)c1ccccc1)[C@@H](C)CN([C@@H](C)CO)S2(=O)=O`: the Tm shift activity is inactive: 0.34% [at 42 µM].

In the case of `Cc1ccc(S(=O)(=O)N2C[C@@H](O)COC[C@@H]3O[C@@H](CC(=O)NCc4ccc(Cl)c(Cl)c4)CC[C@H]32)cc1`, the Tm shift activity was inactive: -5.1% [at 42 µM].

For `Cn1c(=O)c2c(-c3ccccc3)n(-c3cc([N+](=O)[O-])ccc3O)cc2n(C)c1=O`, the Tm shift activity is inactive: 0.019%.

For `Cc1ccc(S(=O)(=O)N[C@H]2CC[C@H](CCNC(=O)C3CCOCC3)O[C@H]2CO)cc1`, the Tm shift activity was inactive: -0.002% [at 42 µM].

In the case of `COc1ccc(NS(=O)(=O)c2cccc(C(=O)NN=Cc3ccc(OC)c(O)c3)c2)cc1`, the Tm shift activity was inactive: -0.26%.

`C[C@H](CO)N1C[C@H](C)[C@H](CN(C)C(=O)CC2CC2)Oc2ncc(C#CC3(O)CCCC3)cc2C1=O`: the Tm shift activity was inactive: -0.167%.

As to `CCC(C)[C@H](NC(=O)N1CCn2c1nc1ccccc12)C(=O)NCCc1ccccc1` (stereo partly drawn), the Tm shift activity was inactive: -0.929%.

As for `COc1ccc(S(=O)(=O)N[C@H]2CC[C@H](CC(=O)N3CCc4ccccc4C3)O[C@@H]2CO)cc1`, the Tm shift activity is inactive: -0.166%.

As for `Cc1ccc(-c2c[n+](CC(=O)Nc3ccc(C)cc3C)c3n2CCC3)cc1`, the Tm shift activity was inactive: -0.152%.

As for `CCCN(C)C[C@@H]1Oc2cc(C#CC(C)(C)O)ccc2S(=O)(=O)N([C@@H](C)CO)C[C@@H]1C`, the Tm shift activity was inactive: -0.025% [at 42 µM].

With `CCC(=O)Nc1ccc2c(c1)C(=O)N(C)C[C@H](OC)[C@@H](C)CN(C(=O)CC)[C@@H](C)CO2`, the Tm shift activity is inactive: -0.111% [at 42 µM].

Take `Oc1ccc(C=NNC(=S)Nc2ccccc2)nc1`: the Tm shift activity is inactive: 0.074%.

`COc1ccc(S(=O)(=O)N(C(C)=O)c2ccc(OC(C)=O)c3ccccc23)cc1[N+](=O)[O-]`: the Tm shift activity was inactive: 0.069%.

For `C[C@H]1CN([C@@H](C)CO)C(=O)c2cc(NC(=O)c3ccncc3)ccc2O[C@@H]1CN(C)S(=O)(=O)c1cn(C)cn1`, the Tm shift activity is inactive: 0.122%.

Turning to `CN(C)CC(=O)Nc1ccc2c(c1)[C@H]1C[C@@H](CC(=O)NCC3CC3)O[C@H](CO)[C@H]1O2`, the Tm shift activity was inactive: -0.011%.

As for `C[C@H](CO)N1C[C@H](C)[C@@H](CN(C)C(=O)Nc2cccc3ccccc23)Oc2c(NS(C)(=O)=O)cccc2C1=O`, the Tm shift activity is inactive: -0.1% [at 42 µM].

With `CN(C)S(=O)(=O)n1cnc([C@@H]2[C@@H]3C(=O)OC[C@@H]3C[C@]23N=CN(Cc2ccccc2)C3=O)c1`, the Tm shift activity is inactive: -0.031%.

On to `O=C(NNC(=O)c1ccccc1O)c1ccc(NS(=O)(=O)c2ccc(F)c(F)c2)cc1`, for which the Tm shift activity is inactive: -0.106%.

Regarding `CCCCN1CC(N2CCN(Cc3cccc(C)c3)CC2)CS1(=O)=O` (stereo not drawn), the Tm shift activity was inactive: 0.007%.

Consider `COc1cc(/C=N/NC(=O)c2ccncc2)ccc1OCC(=O)Nc1cccc([N+](=O)[O-])c1`, for which the Tm shift activity is inactive: -0.027%.

On to `Cc1ccc(CN2CCNC(=O)C2CC(=O)N(C)C2CCCCC2)cc1` (stereo not drawn), for which the Tm shift activity is inactive: -0.116%.

As to `CC(C)(C)NC(=O)N1CCC(CO)(Cc2ccccc2Cl)CC1`, the Tm shift activity was inactive: -0.024%.

As for `C[C@H]1CN([C@@H](C)CO)S(=O)(=O)c2ccc(C#CC3CCCCC3)cc2O[C@@H]1CN(C)C`, the Tm shift activity is inactive: 0.261% [at 42 µM].

Regarding `C[C@H](CO)N1C[C@H](C)[C@H](CN(C)C(=O)Nc2ccccc2)Oc2ccc(NC(=O)Nc3ccccc3)cc2CC1=O`, the Tm shift activity is inactive: 0.289%.

Turning to `O=C(O)C1CSC(c2ccc3c(c2)OCO3)N1` (stereo not drawn), the Tm shift activity was inactive: 0.16%.

For the compound `C[C@H](CO)N1C[C@H](C)[C@@H](CN(C)CC2CC2)Oc2ccc(NS(=O)(=O)c3cccs3)cc2C1=O`, the Tm shift activity was inactive: -0.129% [at 42 µM].

On to `CN(CC(=O)Nc1ccccc1Cl)C(=O)COC(=O)c1nc(Cl)ccc1Cl`, for which the Tm shift activity was inactive: -0.071%.

In the case of `C[C@H](CO)N1C[C@H](C)[C@H](CN(C)C(=O)c2cc(-c3ccccc3)on2)OCc2cnnn2CCCC1=O`, the Tm shift activity was inactive: 0.029%.

Regarding `CCCN(C)C[C@@H]1OCCCC[C@@H](C)Oc2ccc(NC(=O)NC(C)C)cc2C(=O)N([C@@H](C)CO)C[C@@H]1C`, the Tm shift activity was inactive: -0.164%.

For the compound `CC(=O)Nc1ccc(S(=O)(=O)Nc2ccn(Cc3ccccc3Cl)n2)cc1`, the Tm shift activity is inactive: -0.493%.

On to `O=C(C[C@H]1CC[C@H]2[C@@H](COC[C@H](O)CN2CC2CCOCC2)O1)NCC1CCCCC1`, for which the Tm shift activity was inactive: -0.095% [at 42 µM].

In the case of `CC1CN(C(=O)C(C)N2CCN(c3ccccc3Cl)CC2)CC(C)O1` (stereo not drawn), the Tm shift activity was inactive: -0.188%.

Consider `O=C(N[C@H]1C=C[C@H](CC(=O)N2CCCCC2)O[C@H]1CO)c1cccc(F)c1`, for which the Tm shift activity is inactive: 0.293%.
